Test results taken from the supplement of paper PMC10126150.
Sequences with one replicate were seen in a single cluster, so their values are uncertain.

System: ATP
Test: switch fluorescence ratio, 500 uM ATP over buffer (Cy3 cluster intensity, sum of 5 cycles each) (fold (ratio)); higher = stronger signal-on switching upon ATP binding; sequences stand for … in TCGTCGGCAGCGTCAGATGTGTATAAGAGACAGTTTTTTTTTTTTTTTTTTTTTTTTT…TC
Details: aptamer strand: ATP DNA aptamer (quencher-CACCTGGGGGAGTATTGCGGAGGAAGG + anchor), 100 nM annealed; ATP concentration: 500 uM; one replicate
In short: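 Clusters with intensities outside 100-1000 RFU were excluded. The remaining Cy3-labelled switching-strand clusters on a modified Illumina MiSeq flow-cell had been annealed to 100 nM quencher-labelled ATP aptamer and imaged in selection buffer, then after 15 min with 500 uM ATP at 22 °C, for five cycles separated by NaOH stripping and re-annealing. The fluorescence ratio, averaged per switch-domain sequence, is each cluster's summed target-cycle Cy3 intensity over its summed buffer-cycle Cy3 intensity.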
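Note: ATP exposure 15 min at 22 °C before imaging.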

Row | Sequence | switch fluorescence ratio
1 | TATCTACGTT | 1.09
2 | TAAATCGCTC | 1
3 | ATTAGGTTA | 1.02
4 | TCCAAATAAG | 0.957
5 | GGATGGAGAA | 1
6 | ACGTTCCAGG | 2.22
7 | GGTCAAAAAT | 0.999
8 | AGGGGACAAC | 0.984
9 | TAGAGAGTTT | 1.08
10 | GGCTCAAACC | 1.03
11 | CTGACTTGTT | 0.973
12 | CTAACTGTG | 0.93
13 | AGGGGTTCTT | 0.943
14 | TGATACTATT | 0.937
15 | CATCCGTAG | 3.77
16 | GGAGTAAGAA | 1.3
17 | AATCAGGGGA | 1.41
18 | TAGGTTTTTA | 1.03
19 | GGCGACCCTT | 1.02
20 | TTAAGCCTGA | 1.02
21 | GGCTATTGTT | 0.985
22 | TGGATTTGAA | 0.968
23 | ACTGTACGA | 1.52
24 | TTGCGATTGA | 0.99
25 | TAAACCGCGT | 1.09
26 | ATTGCCTAAG | 0.977

Row | Sequence | switch fluorescence ratio
27 | GGTTGGATAG | 0.973
28 | TCCTTGTCAT | 1.07
29 | GACCGCTTTA | 1.31
30 | ATGGCTTGAT | 0.989
31 | ATTATACTG | 1.05
32 | ATTTCAGGC | 1.01
33 | AAAGGGGAAT | 1.01
34 | CAAGCAGAGT | 1.04
35 | ATGCGAACAC | 1.16
36 | TAAGAGTTGA | 0.972
37 | ACTACACCAC | 1.43
38 | TCTATCGCTC | 1.33
39 | CCTGGTAACA | 0.984
40 | CTCAAGGGTG | 1.36
41 | CGCACAGGGG | 3.79
42 | CGCAGGTTGT | 1.1
43 | CTAAACGTCC | 1.21
44 | GGCACTATAC | 2.11
45 | TGGTAACGCT | 1.05
46 | ATGGTCTCAG | 0.966
47 | TGGTGTGAAC | 1
48 | GGCGGACATG | 1.02
49 | ACAAGGGCAC | 0.991
50 | TTCGTTGCGA | 1.03
51 | ACTTTAGTGA | 0.907
52 | CATTGGGCAA | 1.16

Row | Sequence | switch fluorescence ratio
53 | GGTTGCCGAC | 0.962
54 | GGACCTTTGC | 1.03
55 | TTACAAGCAG | 1.03
56 | TAAACCCGTT | 1.07
57 | GCATGGAGCC | 1.05
58 | CGAGAAGATT | 1.01
59 | AGTACGATGC | 1.06
60 | GGTCTTCTG | 1.07
61 | CGTGCCAATT | 0.989
62 | AAAGATTGTA | 0.941
63 | TCATAGTTTC | 1.03
64 | TAGCTTGAAG | 1.02
65 | GATTGGTTGG | 0.987
66 | GTTCAGCAGT | 1.08
67 | TAGTCGGATA | 0.948
68 | AATGTTGGAT | 0.981
69 | TAATAGAGTG | 0.978
70 | ACTCCTCATT | 1.81
71 | CCCATCCGCT | 3.23
72 | CGTGTTTGGT | 0.961
73 | CCCGGTTAAC | 1.13
74 | CATTAAAGCT | 1.11
75 | TACGGATGTA | 0.949
76 | AGTGCAAACC | 1.01
77 | TCTAGTCCTT | 1.02
78 | GGAGGTATTT | 0.994

Row | Sequence | switch fluorescence ratio
79 | TTAGTCTAAT | 0.99
80 | TAGAATTCGG | 0.979
81 | CCAAGCTGCG | 1.03
82 | TATTCTTGTG | 1.03
83 | TGGTGGTTC | 0.97
84 | GCCATACTAA | 1.08
85 | GATATAGTTA | 0.99
86 | TGGTTGAACT | 0.989
87 | GGATTTTGCG | 1.08
88 | ACTCTGCATG | 6.71
89 | TAAGTTAAAT | 1.01
90 | CAGCGATAAA | 1.03
91 | AGTAAATGCC | 0.981
92 | CGTTACAGCA | 1.04
93 | TTAATATCGT | 0.986
94 | GGTGGCTTAT | 0.989
95 | GACTTCCGGG | 1.11
96 | ATTCTTTTCC | 1.01
97 | GTTTGAACAT | 1.01
98 | TTCATGGACG | 0.975
99 | GAGTTCACAC | 0.946
100 | TTGCTGATAG | 1.01
101 | ACGGGGTAGC | 0.988
102 | TTTGAAAAG | 1.06
103 | CAAATAAACG | 1.02
104 | AATTTGGTC | 0.923

Row | Sequence | switch fluorescence ratio
105 | ATCAGTGCGT | 1.02
106 | TATCACTCTA | 1.06
107 | ACGCGGAAG | 1.01
108 | GCCGGTTAGG | 0.98
109 | CAGAAATCGT | 1.02
110 | GAGAGTCCGA | 1.06
111 | GGGGCGCATG | 1.09
112 | AAGCATATAT | 1.36
113 | GGTGGGGAGG | 1.02
114 | ATCTAAGCTT | 1.06
115 | TCGCTGTCGG | 1.01
116 | GCCGTCTGAG | 0.995
117 | GAGGAATAAG | 1
118 | TGTCCGTCTC | 1.32
119 | GTTAATACTT | 1.01
120 | GCAACGGCAC | 1.38
121 | GGAGCAAAGA | 1.97
122 | GGGTGTTAGG | 1
123 | TCACGGGAA | 1.06
124 | GTATATTCTG | 1.02
125 | CATAGACAT | 0.975
126 | TGACCGTCT | 0.992
127 | TTGGTTCAG | 0.98
128 | CCAGGGCAAT | 6.29
129 | GAAGAACTGA | 1.03
130 | GCGAGAAACG | 1.02

Row | Sequence | switch fluorescence ratio
131 | TGCAGGCGAT | 1.01
132 | GCACGTTTCC | 1.05
133 | ACTAACGCGG | 1.05
134 | TCAGAACTGG | 1.02
135 | CTTTTCCATG | 0.959
136 | TACGGGTTTA | 0.98
137 | AACCGGTGAA | 0.992
138 | TTAACATTCG | 1.02
139 | CGAATTACGC | 1.18
140 | TAGTAGTAAA | 0.997
141 | GGGTAAGGCC | 0.958
142 | CAGTACCACA | 1.05
143 | CTCAGTGAGC | 1.03
144 | ATTTAAGGTG | 1.39
145 | TTCAACGCGA | 1.59
146 | ATCAAATCGC | 0.955
147 | AAGAAGGGAC | 0.968
148 | AAAAATGAGG | 1.02
149 | TGCTCTTGGC | 1
150 | GAACATGGAT | 1.02
151 | ACTATAAGGT | 1.05
152 | CTGCCTGGGG | 0.967
153 | TCAATTGGTT | 1.02
154 | AGAAAATGTC | 0.987
155 | CTTATCACAT | 1
156 | CGGCTCTAAC | 1.07

Row | Sequence | switch fluorescence ratio
157 | TTGAACCCAT | 1
158 | GATTCGACAT | 1.04
159 | AGCAACGGGT | 0.954
160 | ACATTTGCTA | 1.01
161 | GTGGGACAA | 1.02
162 | AGCTGTCGG | 0.984
163 | TGTTGCGGTT | 1.02
164 | CTGAGCAGTT | 1.14
165 | GTGCAGTACG | 1.52
166 | TCTGGCCCAG | 0.958
167 | TGGTCATGCA | 1.03
168 | CGTATGAG | 0.978
169 | CATTTTCTA | 0.999
170 | GCCTGGGATT | 1.04
171 | AAAGATAGGT | 0.971
172 | GCATATATAG | 0.997
173 | GGATTCCGCA | 2.73
174 | CACGCGGACA | 1.15
175 | AGTCACCTTA | 0.971
176 | TAGACGCCAG | 0.909
177 | GGCTCTAGAC | 1.04
178 | AGAGCGATTC | 1.42
179 | GTTATTAAGG | 1.01
180 | TACTAGTTT | 1.5
181 | CGTAAGCCGA | 1.01
182 | TAATCGATTG | 0.977

Row | Sequence | switch fluorescence ratio
183 | TTGTGACACT | 0.962
184 | TTGTGGCAAA | 0.993
185 | CTTTCCAATT | 1.07
186 | TGGGTCCG | 1.03
187 | GAGGCCTCCT | 0.965
188 | CGGGCGGTGT | 1.07
189 | ATTGAACCAT | 0.964
190 | ACGGGGAATC | 1.13
191 | GCTCAAATTG | 0.952
192 | GGGCTTGTAC | 1.02
193 | CGTGGCCACC | 1.02
194 | CCGAGTTCTC | 1.12
195 | AAGAGGAGGA | 1.02
196 | TGTACGTGG | 0.99
197 | TCTCGGGGGA | 1.11
198 | CTTGTGTCCC | 0.999
199 | TCGGCACCGC | 1.04
200 | CAAGAGGAGG | 0.972
201 | GCTTCTTCCG | 3.51
